# Experimental data published in article PMC4336329 (PLoS ONE, 2015).
# The campaign covered roughly 310,000 compounds. About 2,200 (0.71%) showed an effect of 50% or more. The effect is printed as a negative number. This is one part of the list.
# Target: human ether-à-go-go-related gene (hERG) potassium channel (human, UniProt Q12809)
# Experiment: primary screen, population patch clamp on CHO cells stably expressing hERG
# human ether-à-go-go-related gene (hERG) potassium channel, sequence (Q12809 whole entry, looked up): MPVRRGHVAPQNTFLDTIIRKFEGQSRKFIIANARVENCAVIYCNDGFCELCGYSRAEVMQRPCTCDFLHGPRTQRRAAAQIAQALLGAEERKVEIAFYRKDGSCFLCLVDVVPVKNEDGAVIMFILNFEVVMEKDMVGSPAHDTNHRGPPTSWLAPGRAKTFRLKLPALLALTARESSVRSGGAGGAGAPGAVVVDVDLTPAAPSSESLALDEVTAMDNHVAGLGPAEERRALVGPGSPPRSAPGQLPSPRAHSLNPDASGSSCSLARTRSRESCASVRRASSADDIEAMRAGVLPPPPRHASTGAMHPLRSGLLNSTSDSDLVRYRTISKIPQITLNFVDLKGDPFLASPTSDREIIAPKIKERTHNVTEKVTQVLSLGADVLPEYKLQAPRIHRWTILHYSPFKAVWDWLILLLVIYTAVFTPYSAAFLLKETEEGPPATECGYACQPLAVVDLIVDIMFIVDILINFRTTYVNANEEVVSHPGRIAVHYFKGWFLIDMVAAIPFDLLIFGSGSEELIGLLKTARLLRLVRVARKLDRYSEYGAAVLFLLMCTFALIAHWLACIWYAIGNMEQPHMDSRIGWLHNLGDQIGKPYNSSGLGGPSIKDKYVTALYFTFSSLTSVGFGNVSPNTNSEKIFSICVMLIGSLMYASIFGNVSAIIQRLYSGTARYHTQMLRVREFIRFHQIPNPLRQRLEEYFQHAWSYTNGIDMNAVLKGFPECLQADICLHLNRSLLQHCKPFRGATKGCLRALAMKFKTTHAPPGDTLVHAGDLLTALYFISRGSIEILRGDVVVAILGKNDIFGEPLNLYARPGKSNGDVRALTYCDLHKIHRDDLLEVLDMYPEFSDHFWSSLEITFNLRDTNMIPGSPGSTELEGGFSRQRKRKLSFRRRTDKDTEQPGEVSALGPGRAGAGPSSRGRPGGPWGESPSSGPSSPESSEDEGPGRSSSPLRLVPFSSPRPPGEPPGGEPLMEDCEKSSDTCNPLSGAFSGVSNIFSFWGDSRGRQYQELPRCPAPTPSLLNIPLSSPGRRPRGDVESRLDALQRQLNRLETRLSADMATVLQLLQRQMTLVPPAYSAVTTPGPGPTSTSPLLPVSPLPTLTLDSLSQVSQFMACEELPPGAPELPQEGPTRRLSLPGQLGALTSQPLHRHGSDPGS
row,SMILES,"hERG current change (%, negative = inhibition) at 1uM"
1,Cc1cccc(N2CCN(C(=O)Cc3ccc(-n4c(=O)[nH]c5ccsc5c4=O)cc3)CC2C)c1 (stereo not shown),4.54%
2,N#C/C(=C\c1ccc(F)cc1)c1n[nH]c(Cn2cncn2)n1,11.3%
3,Nc1ccc(C(=O)OCC(=O)Nc2ccc([N+](=O)[O-])cc2C(F)(F)F)cc1,3.48%
4,CCC(C)[C@@H](CN(N=O)[C@@H](Cc1ccccc1)CN(C)N=O)N(CCc1ccccc1)N=O.[Na+] (stereo partly shown),4.62%
5,C/C(=N\NC(=O)C1CC1c1ccccc1)c1cccc([N+](=O)[O-])c1 (stereo not shown),14.4%
6,CCOCCCNC(=O)c1ccc(CS(=O)(=O)Cc2ccccc2F)o1,0.194%
7,COC(=O)c1nn(-c2ccccc2)c(=O)cc1Oc1ccc(Cl)cc1,-7.65%
8,O=C(CCn1c(=S)[nH]c2cc3c(cc2c1=O)OCO3)NCc1cccc(Cl)c1,11%
9,COc1ccccc1N1CCN(c2ncc(C(=O)N3CCN(c4cccc(Cl)c4)CC3)c3ccccc23)CC1,2.99%
10,CC(=O)Nc1ccc(Cc2nc3ccccc3[nH]2)cc1,17.5%
11,Cn1c(=O)c2c(nc(Oc3cccc(Br)c3)n2C)n(C)c1=O,2.29%
12,CCOC(=O)c1sc(=NC(=O)c2ccc(S(=O)(=O)N(C)c3ccccc3)cc2)n(C)c1C,14.6%
13,COc1ccccc1CNC(=O)CSc1ccc(-c2ccccn2)nn1,4.54%
14,COC(=O)NCC(c1ccco1)N1CCN(c2ccccc2)CC1 (stereo not shown),11%
15,COc1nc(C)ccc1-c1noc(-c2ccncc2)n1,6.2%
16,CSCCC(NC(=O)COc1ccccc1)C(=O)Nc1ccc(C)cc1 (stereo not shown),5.05%
17,COc1ccc(OC)c(-c2nn(-c3ccccc3)cc2C(=O)N2CCc3ccccc3C2)c1,9.32%
18,CCN(C(=O)CSc1cc(-c2ccccc2)c2ccc(OC)cc2n1)C1CCS(=O)(=O)C1 (stereo not shown),2.06%
19,Cc1ccc(NC(=O)Nc2ccccc2)cc1[N+](=O)[O-],12.9%
20,Cc1cc(=O)[nH]c2c3ccccc3nn12,13.1%
21,C/C(=N\Nc1ccc(C)c(Cl)c1)c1ccncc1,21.7%
22,CC(=O)Nc1cccc(NC(=O)CSc2nccn2Cc2ccc(F)cc2)c1,10.9%

row,SMILES,"hERG current change (%, negative = inhibition) at 1uM"
1,Cc1ncc(CN2CCC(CO)(CCc3ccccc3)CC2)s1,-15.3%
2,CCOC(=O)N1CCN(S(=O)(=O)c2ccc(C(=O)N(CCCN(C)C)c3nc4ccc(OC)cc4s3)cc2)CC1.Cl,-36.7%
3,O=C(Cn1cnc2ccccc2c1=O)NCc1ccc2c(c1)OCO2,11.9%
4,Cc1ccc(OCCCCN2CCC(C)CC2)c(Br)c1.O=C(O)C(=O)O,-31.1%
5,N#Cc1ccc(-c2csc(NC(=O)C3CC3)n2)cc1,14.3%
6,CC(=O)CN1Cc2ccccc2/C1=N\C(=O)Nc1ccccc1,13.9%
7,CCOC(=O)C(=O)Nc1nnc(SCc2ccc(F)cc2)s1,8.83%
8,COc1cccc(NC(=O)c2ccc(S(=O)(=O)N3CCCCC3)cc2)c1,7.32%
9,CC(=O)Nc1ccc(S(=O)(=O)N2CCCC2C(=O)O)cc1 (stereo not shown),6.63%
10,COc1ccccc1CCNC(=O)C1CCC(=O)N(Cc2ccccc2OC)C1 (stereo not shown),-2.39%
11,O=C(CN1C2CCCC1CC(NC(=O)c1ccccc1)C2)Nc1ccccc1 (stereo not shown),-18.4%
12,Cc1noc(C)c1COc1ccc(C(=O)NCc2ccccn2)cc1,18.5%
13,O=C(CSc1nnc(CNC(=O)c2ccc(F)cc2)o1)NCc1ccc2c(c1)OCO2,12.1%
14,CC(=O)[C@@]12O[C@@H]1C[C@H]1[C@@H]3CC[C@H]4C[C@@H](O)CC[C@]4(C)[C@H]3CC[C@@]12C,4.74%
15,COc1ccc(NC(=S)N2CCC(C(=O)N3CCCCCC3)CC2)cc1,15.3%
16,O=C1NCCCC1C(=O)Nc1cccc(C(F)(F)F)c1 (stereo not shown),-2.17%
17,CCCCCNS(=O)(=O)c1cc(C)ccc1OC,14.6%
18,COc1cccc(NC(=O)CCNS(=O)(=O)c2cccc3nsnc23)c1,5.59%
19,COc1ccc([C@H]2CC(=O)C=C(c3cc4ccccc4c4ccccc34)C2)cc1,17%
20,CN(C)CCCN(C(=O)c1ccco1)c1nc(-c2ccc(Cl)cc2)cs1.Cl,-70.8%
21,COc1ccc(-c2cc(C(=O)OC3CCOC3=O)c3ccccc3n2)cc1OC (stereo not shown),9.92%
22,CCOC(=O)c1oc2ccccc2c1CSc1nnnn1-c1ccccc1,4.05%

row,SMILES,"hERG current change (%, negative = inhibition) at 1uM"
1,NC(=O)c1ccc(NCCc2ccccc2)c([N+](=O)[O-])c1,1.48%
2,O=C(Nc1ccccc1N1CCOCC1)c1cc(F)cc(F)c1,5.99%
3,O=C(Nc1nccs1)c1cc([N+](=O)[O-])ccc1Cl,13.9%
4,O=C(NCC1CCCO1)c1cccc2ccccc12 (stereo not shown),17.8%
5,O=C1S/C(=C/c2ccc(N3CCOCC3)o2)C(=O)N1Cc1c(F)cccc1Cl,13%
6,Cc1cccc(NC(=S)NC(C)C(c2ccccc2)N2CCN(C)CC2)c1C (stereo not shown),-23.4%
7,Cc1ccc(/C=N/N=C2/NC(=O)C(CC(=O)Nc3ccc(Cl)cc3)S2)o1 (stereo not shown),12%
8,CC(Oc1ccc(Br)cc1)C(=O)Nc1ccc(S(=O)(=O)N(C)C2CCN(C)CC2)cc1 (stereo not shown),9.55%
9,CC(C)NC(=O)CCCn1cc([N+](=O)[O-])cn1,8.9%
10,O=C(c1ccc2c(c1)C(=O)N(Cc1ccco1)C2=O)N1CCOCC1,11.9%
11,CC(NC(=O)CN1CCOCC1)c1ccc(F)cc1 (stereo not shown),6.68%
12,CC(C)(C)c1ccc(OCCC(=O)OCC(=O)NC2CC2)cc1,2.6%
13,Oc1ccccc1CN1CCCC(N2CCN(c3cccc(C(F)(F)F)c3)CC2)C1 (stereo not shown),17.6%
14,CC(CN1CCOCC1)OC(=O)Cc1ccccc1.Cl (stereo not shown),6.83%
15,O=C(/C=C/c1ccc(Br)cc1)N1CCN(c2cccc(C(F)(F)F)c2)CC1,2.55%
16,CCOc1ccc(S(=O)(=O)Nc2ccc(C(=O)NCC(c3ccco3)N(C)C)cc2)cc1 (stereo not shown),1.38%
17,COc1ccc(N(C(C)C(=O)NC2CCCCCC2)S(C)(=O)=O)cc1 (stereo not shown),5.83%
18,CC(C)C1Oc2ccccc2N(CC(=O)N2CCOCC2)C1=O (stereo not shown),6.66%
19,CCCc1cc(=O)oc2cc(C)cc(OCC(=O)NC3CC3)c12,11.9%
20,CC(C)NC(=O)CSc1nc(-c2cccs2)cc(-c2ccccc2)c1C#N,14.4%
21,CCCCNC(=O)c1ccccc1NC(=O)C1=C(C)OCCS1,6.8%
22,CC(=O)c1cccc(NC(=O)CN(c2cccc(F)c2)S(C)(=O)=O)c1,8.75%

row,SMILES,"hERG current change (%, negative = inhibition) at 1uM"
1,CN(C)CCN(Cc1cc2cc3c(cc2[nH]c1=O)OCCO3)C(=S)NCC1CCCO1 (stereo not shown),13.3%
2,COc1cc([N+](=O)[O-])ccc1NC(=O)CN(C)C,3.66%
3,Clc1nnc(N/N=C/c2ccccc2)c2ccccc12,-1.11%
4,CCOC(=O)C(C)n1cnc2c(nnn2-c2ccc(F)cc2)c1=O (stereo not shown),6.1%
5,Cc1cc(C)cc(OCCCC(=O)O)c1,18.2%
6,Cc1cccc(-c2nnc(SCC(=O)N3c4ccccc4CCc4ccccc43)n2C)c1,-0.61%
7,CCOc1ccccc1/C=N/NC(=O)C[n+]1ccccc1.[Cl-],3.98%
8,Cc1c(O)cc2c(c1O)C(=O)CC(c1ccc(O)cc1)O2 (stereo not shown),5.99%
9,COc1cc(OC)nc(NC(=O)C(C)C)n1,12.2%
10,Cc1ccc(C(=O)OC2CCN(c3ccc([N+](=O)[O-])cc3)CC2)cc1,0.026%
11,COc1cccc(C(=O)NC(C)CCc2ccccc2)c1 (stereo not shown),14%
12,CCc1ccc(C2=NN(c3ccc(S(N)(=O)=O)cc3)C(c3ccc(F)cc3)C2)cc1 (stereo not shown),13.2%
13,CNC(=O)C1CC(=O)N(c2ccc(OCC(=O)Nc3ccc(OC)cc3)cc2)C1 (stereo not shown),7.82%
14,CCN(CC)C(=O)Cn1cc(C(=O)C(=O)N2CCN(C)CC2)c2ccccc21,15.1%
15,CN1C(C(=O)NCc2ccc(OC(F)(F)F)cc2)CC2Cn3c(nc4cc5ccccc5cc43)C21 (stereo not shown),-14.7%
16,CSc1ncccc1C(=O)OCC(=O)c1ccccc1Br,8.13%
17,C=C(C)C(=O)Nc1cccc(C2=NOC3(C2)C[C@H](C(N)=O)N(C(=O)c2ccccc2C(=O)c2ccccc2)C3)c1 (stereo partly shown),1.18%
18,CCSc1nnc(NC(=O)CN(C)S(=O)(=O)c2ccc(F)cc2)s1,12%
19,O=C(CSc1nnc(-c2cccnc2)s1)Nc1cccc(C(=O)O)c1,1.24%
20,CCCOC(=O)C(C)n1cnc2sc(C)c(C)c2c1=O (stereo not shown),11.1%
21,Cc1cc2ncn(C(=O)N3CCCCCC3)c2cc1C,12.1%
22,Cc1ccccc1NCc1ccccc1O.Cl,8.56%
